# From PubChem BioAssay AID463173 (ICCB-Longwood Screening Facility, Harvard Medical School, 2010)
# In all, about 52,000 compounds went through this assay and about 1,700 (3.3%) were called active. Rule as the data show it: active = survival mostly below about 52% (no sharp cut-off); inactive = mostly above about 56%. Some of the results follow.
# System: Wild type
# Assay: S. aureus survival, RN4220 and DeltatarO strains – OD600, teichoic acid synthesis inhibitors, primary screen (AID 463173)
# Details: S. aureus RN4220 wild type/DeltatarO growth, OD600, 18 h, stronger effect = lower value, screened at 18.75 µg/mL (by protocol)
row,SMILES,survival
1,Cc1ccc(S(=O)(=O)NCC(Nc2cccc(Cl)c2)c2ccccc2)cc1 (centres undefined),inactive: 68%
2,CCOc1ccc(NC(=O)C2CC(=O)NC(=Nc3ccccc3)S2)cc1 (centres undefined),inactive: 104%
3,CCOc1ccc(-c2cccc(NS(=O)(=O)c3ccccc3C(F)(F)F)c2)nn1,inactive: 90%
4,O=S(=O)(c1ccc2nc(Nc3cccc(F)c3)ccc2c1)N1CCCC1,inactive: 75%
5,CCc1ccc(NC(=O)N2CCC(N3CCN(Cc4ccc(C)cc4)C(=O)C3=O)CC2)cc1,inactive: 135%
6,CCn1c(CNC(=O)C(OC)c2ccccc2)nnc1SC (centres undefined),inactive: 125%
7,CCn1c(C(=O)N2CCCC(C(=O)N3CCN(c4ccccc4)CC3)C2)cc2sccc21 (centres undefined),inactive: 82%
8,COc1ccc(-c2cc3nccc(-c4cc(Cl)c(C)cc4O)n3n2)cc1,inactive: 82%
9,CC(C)(C#N)Nc1ccccc1,inactive: 105%
10,Cc1nn(CC(=O)NCCc2ccccc2)c(=O)c2c1sc1ccccc12,inactive: 84%
11,Clc1nc(Cl)nc(N2CCCCC2)n1,inactive: 101%
12,CCOc1ccccc1NC(=O)CSC1=Nc2ccccc2C2=NC(CC(=O)NCc3ccc4c(c3)OCO4)C(=O)N12 (centres undefined),inactive: 123%
13,O=c1cc(-c2ccccc2)n2c(SCc3ccc(Br)cc3)nnc2[nH]1,inactive: 126%
14,COc1ccccc1CN1C(=O)C(=O)c2cccc(C)c21,inactive: 107%
15,CCN(C(=O)Cc1ccccc1OC)c1nnc(-c2ccncc2)s1,inactive: 111%
16,COc1ccc(-n2ccnc(NCCc3ccc(Cl)cc3)c2=O)cc1OC,inactive: 47%
17,CCCCSCCCNC(=O)c1c[nH]c2ccc(S(=O)(=O)Nc3cccc(OC)c3)cc2c1=O,inactive: 72%
18,Cc1cc2nc(N(Cc3cccnc3)C(=O)c3ccc(Cl)s3)sc2cc1C,active: 0%
19,Cc1ccc(S(=O)(=O)NCC(c2ccc(N(C)C)cc2)N2CCc3ccccc32)cc1 (centres undefined),active: -2%
20,CCC(C)NC(=O)Cn1c(=O)n(-c2ccc(C)c(C)c2)c(=O)c2c(C)c(C(=O)N(CC)CC)sc21 (centres undefined),inactive: 66%

row,SMILES,survival
1,CC(=O)N1c2ccc(S(=O)(=O)N(C)CC(=O)N(Cc3ccccc3)C(C)C)cc2CC1C (centres undefined),inactive: 91%
2,CC(C)(C)c1ccc(C(=O)N2CCN(CCc3ccccn3)CC2)cc1,inactive: 82%
3,O=C(Cc1ccccc1)Nc1nnc2n1CCS2,inactive: 83%
4,CCN(Cc1ccccc1)Cc1c(O)ccc2oc(C)c(C(=O)Nc3ccccc3C)c12,inactive: 78%
5,COc1ccc(NC(=O)Nc2cc(-c3cn4cccnc4n3)ccc2OC)cc1,inactive: 105%
6,Cc1ccc(CN2c3ccccc3-c3nc(SCC(=O)Nc4c(C)cc(C)cc4C)ncc3S2(=O)=O)cc1,inactive: 133%
7,CCOc1ccccc1C(=O)N1CC(=O)Nc2ccc(C)cc2C1c1ccccc1 (centres undefined),inactive: 138%
8,CCOc1ccccc1NC(=O)N1CCc2c(sc3c2CCCC3)C1c1ccccc1 (centres undefined),inactive: 75%
9,Cc1nn2c(=O)cc(COc3ccc(/C=C(\C#N)C(=O)Nc4ccccc4)cc3Cl)nc2s1,inactive: 81%
10,O=C(OCc1ccccc1Cl)c1ccc(-c2nnn(Cc3ccc(F)cc3)n2)cc1,inactive: 160%
11,Brc1ccc2c(c1)NC(c1cccnc1)=NC(c1ccccc1)=N2,inactive: 116%
12,O=c1oc2ccccc2cc1-c1nc2c(s1)CCCC2,inactive: 104%
13,CCc1cccc(C)c1Nc1c(-c2cccs2)nc2nc(C)cc(C)n12,inactive: 75%
14,CCOC(=O)c1csc2c1CCC/C2=N/OC(C)=O,inactive: 107%
15,CCOc1cc(C(=O)NCc2nc(-c3cccc(C)c3)no2)cc(OCC)c1OCC,inactive: 89%
16,COC(=O)c1ccccc1NC(=O)c1cc(CN2CCOCC2)on1,inactive: 99%
17,CCN(CC)c1ccc(NC(=O)CCS(=O)(=O)c2ccc3c(c2)oc(=O)n3C)c(C)c1,inactive: 73%
18,Cc1ccc(CNc2ncnc3onc(C)c23)cc1,inactive: 136%
19,CC(=C1C(=O)c2ccccc2C1=O)N1CCN(CCO)CC1,inactive: 114%
20,O=C(CSc1nc2ccccc2nc1Cc1ccccc1F)Nc1cccc(C(F)(F)F)c1,inactive: 57%

row,SMILES,survival
1,COc1ccc(-c2cc3nc(C)c(CCC(=O)N4CCN(c5ccccc5F)CC4)c(C)n3n2)c(OC)c1,inactive: 70%
2,Cc1ccc(NC(=O)Cn2c(=O)oc3cc(S(=O)(=O)N4CCCCC4)ccc32)c(C)c1,inactive: 94%
3,CCC(=O)Nc1ccc(CC)cc1-c1nc2ccccc2n(CC(=O)Nc2ccccc2C)c1=O,inactive: 88%
4,N#Cc1c2c(c(-n3ccnc3)n3c1nc1ccccc13)CCC2,inactive: 105%
5,COc1ccc(-c2onc(C)c2C)cc1S(=O)(=O)Nc1cc(Cl)ccc1C,inactive: 82%
6,CC(C)OCCCn1c(=O)c2ccccc2n2c(-c3cc(Cl)ccc3O)nnc12,inactive: 94%
7,COCC(=O)NC1CCN(Cc2nnnn2Cc2ccc3c(c2)OCO3)CC1,inactive: 128%
8,NC(Cc1c[nH]c2ccccc12)C(=O)NCc1ccccc1 (centres undefined),inactive: 104%
9,CCCOc1ccc(C2c3c(-c4ccccc4O)n[nH]c3C(=O)N2Cc2cccnc2)cc1 (centres undefined),active: 3%
10,COc1cc2c(cc1OC)C(COc1ccc(F)cc1)N(C(=O)Cc1ccccc1)CC2 (centres undefined),inactive: 72%
11,CCOc1ccc(-c2cc(C(=O)NCCCOC)c3c(-c4ccc(CC)cc4)[nH]nc3n2)cc1,inactive: 71%
12,COc1cc(C(=O)Nc2ccc(-c3nc4ccccc4o3)c(O)c2)cc(OC)c1OC,inactive: 129%
13,Cc1cn2c(=O)cc(COC(=O)c3ccc(NC(=O)COc4ccc(C)c(C)c4)cc3)nc2s1,inactive: 63%
14,CCc1ccccc1NC(=O)CSc1nnc(COc2ccccc2Cl)o1,inactive: 69%
15,CCc1ccccc1NC(=O)CN1C(=O)c2cccnc2Sc2ccccc21,inactive: 117%
16,CCn1c(=O)c2sccc2n2c(CCC(=O)Nc3ccc(OC)cc3OC)nnc12,inactive: 68%
17,O=c1c2ccccc2n(Cc2c(F)cccc2Cl)c(=O)n1Cc1ccccc1,inactive: 40%
18,COCc1nc2ccccc2n1Cc1cccc(C)c1,inactive: 81%
19,CCn1c(=N)c(C(=O)NCC2CCCO2)cc2c(=O)n3cc(C)ccc3nc21 (centres undefined),inactive: 84%
